Among all 410,000 compounds or so, about 850 (0.21%) were called active. The shares of active, inactive and inconclusive entries below differ from those in the screen. Calls come from the whole dose curve; as a rule, active = well fitted inhibition curve with a large enough effect; inconclusive = small, poorly fitted or top-dose-only effect, or another doubt; inactive = no such curve, though single readings can be large or run the other way. No potency is given beside an inconclusive call; the fits are too rough.
biological target: Glutaminase kidney isoform, mitochondrial (Homo sapiens) (UniProt O94925); assay: qHTS for Inhibitors of Glutaminase (GLS); conditions: GLS enzymatic activity, qHTS titration; series mostly up to 45.5 µM
Sequence of UniProt O94925 (O94925 whole entry, looked up, canonical isoform): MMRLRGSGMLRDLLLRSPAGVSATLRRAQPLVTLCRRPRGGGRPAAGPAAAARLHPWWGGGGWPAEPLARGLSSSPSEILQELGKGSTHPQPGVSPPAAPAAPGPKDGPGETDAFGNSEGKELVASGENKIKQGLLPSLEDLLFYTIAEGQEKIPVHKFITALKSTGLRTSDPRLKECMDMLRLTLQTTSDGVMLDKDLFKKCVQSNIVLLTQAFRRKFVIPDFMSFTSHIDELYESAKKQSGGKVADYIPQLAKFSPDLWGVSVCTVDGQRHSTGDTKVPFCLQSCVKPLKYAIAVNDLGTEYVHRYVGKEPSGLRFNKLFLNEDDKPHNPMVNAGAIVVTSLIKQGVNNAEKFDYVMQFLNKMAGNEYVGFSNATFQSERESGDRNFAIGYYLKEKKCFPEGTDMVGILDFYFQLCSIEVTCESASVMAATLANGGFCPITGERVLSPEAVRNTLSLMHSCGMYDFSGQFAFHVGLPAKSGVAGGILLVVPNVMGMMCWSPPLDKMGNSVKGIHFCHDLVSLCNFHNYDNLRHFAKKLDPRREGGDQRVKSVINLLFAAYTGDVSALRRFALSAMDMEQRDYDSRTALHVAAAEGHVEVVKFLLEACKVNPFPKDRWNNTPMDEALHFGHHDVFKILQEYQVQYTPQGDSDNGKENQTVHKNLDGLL
Outline: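 Human kidney-isoform GLS in 45 mM KH2PO4 pH 8.2, 0.02% Tween-20, with compound, started with 1mM L-Glutamine (added stock). Glutamate oxidase/HRP/Amplex red coupled fluorescence read at start and after 30 min at RT.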
Potency is the fitted concentration of half-maximal effect; tags give direction and shape of the fitted curve.

| SMILES | Potency |
| --- | --- |
| CN(C)C(CNC(=O)c1cc(-c2ccco2)nc2ccccc12)c1ccccc1 (centres undefined) | inconclusive [inhibitor, partial curve] |
| O=C(NCCC1=CCCCC1)c1cc(S(=O)(=O)N2CCOCC2)ccc1Cl | inactive |
| Cc1cc(C(=O)COC(=O)CCc2nc3ccccc3s2)c(C)n1C | inactive |
| Cc1cc(N=Nc2ccccc2C(=O)O)c(C)c(C)c1O | inconclusive [inhibitor, single point] |
| CC(=O)N[C@@H]1c2c(ccc3ccccc23)OC[C@@H]1COC(C)=O | inconclusive [inhibitor, single point] |
| Cc1cc2c(c(=O)o1)C1(C(=O)N(CC(=O)O)c3ccccc31)C(C#N)=C(N)O2 (centres undefined) | inconclusive [inhibitor, single point] |
| O=[N+]([O-])c1cc(C(F)(F)F)ccc1NCC1CCCO1 (centres undefined) | inconclusive [inhibitor, single point] |
| Cc1cc(C)c2c(=O)n(CC(=O)N3CCC(N4CCCCC4)CC3)sc2n1 | inactive |
| COc1ccccc1C(=O)Nc1nc2nc(-c3ccccc3)cc(=O)n2[nH]1 | inconclusive [inhibitor, single point] |
| Nc1c(-c2nc(-c3cccs3)no2)nnn1-c1cccc(F)c1 | inactive |
| CCNCc1cc2cc(C)ccc2[nH]c1=O | inconclusive [inhibitor, single point] |
| O=C(O)c1cc(Cl)c2c(c1)[C@@H]1C=CC[C@@H]1[C@H](c1ccc(S(=O)(=O)N3CCOCC3)cc1)N2 | active: 12.6 µM |
| CCOCCCNC(=O)CCC(=O)NNc1nc2ccccc2c2nc(-c3ccccc3)nn12 | inconclusive [inhibitor, partial curve, poor fit] |
| CCc1sc(Nc2ccc(C)cc2Br)nc1-c1cc2cccc(OC)c2oc1=O | inactive |
| COc1ccc(C2CC(C)(c3ccc(OC)cc3)Nc3ccccc3N2)cc1 (centres undefined) | inconclusive [inhibitor, single point] |
| Cc1occc1-c1nnc(SCC(=O)c2c[nH]c3ccccc23)n1C | inactive |
| O=C(NCC(F)(F)F)[C@H]1O[C@@H](n2ccc(=O)[nH]c2=O)[C@H](O)[C@@H]1O | inconclusive [inhibitor, single point] |
| Cc1c(/C=C/C(=O)c2cccs2)cnn1C | inconclusive [inhibitor, single point] |
| O=S(=O)(NCCc1csc2nc(-c3ccc(Cl)cc3)nn12)c1ccc(Oc2ccccc2)cc1 | inactive |
| COc1ccc(Nc2nnc(-c3ccc(O)cc3)c3ccccc23)cc1C(N)=O | active: 7.94 µM |
| CCCn1c(=NC(=O)c2ccco2)c(C(=O)OCC)cc2c(=O)n3ccccc3nc21 | inconclusive [inhibitor, partial curve, poor fit] |
| CC(=O)Nc1cc(-c2ccccc2N(C)C)cn2c(-c3ccc(S(C)(=O)=O)cc3)cnc12 | inconclusive [inhibitor, partial curve, poor fit] |
| Cc1ccc2c(n1)sc1c(-c3ccc(Br)cc3)c(C#N)c(N)nc12 | inconclusive [inhibitor, single point] |

| SMILES | Potency |
| --- | --- |
| S=c1[nH]nc(-c2ccc(Br)cc2)n1Cc1ccccc1 | inconclusive [inhibitor, partial curve, poor fit] |
| Cc1cc(CSc2ccccc2)ccc1NC(=O)c1ccc(Br)cc1 | inactive |
| Cc1ccc(NC(=O)C2CCN(S(=O)(=O)c3ccccc3)CC2)cc1 | inactive |
| Clc1ccc2nnc(Cl)n2n1 | inconclusive [inhibitor, single point] |
| COc1cccc(/C=C2\SC(=S)NC2=O)c1OS(=O)(=O)c1ccc(NC(C)=O)cc1 | inconclusive [inhibitor, single point] |
| CC1(C)CC(=O)c2cc(-c3nc(-c4ccc(Br)cc4)cs3)c(=O)n(-c3ccccc3)c2C1 | inactive |
| C/C=C(\C)C(=O)OC1CC(C)(C)C[C@H]2C3=CC[C@@H]4[C@@]5(C)CCC(O[C@@H]6O[C@@H](C(=O)O)[C@@H](O)C(O[C@@H]7OC[C@H](O)[C@@H](O)[C@@H]7O[C@@H]7OC(CO)C(O)[C@@H](O)[C@@H]7O)C6O[C@@H]6OC(CO)C(O)C(O)C6O)[C@@](C)(CO)[C@@H]5CC[C@]4(C)[C@]3(C)CC(O)[C@@]12CO (some centres undefined) | active: 12.6 µM |
| Cc1ccc(NC(=S)NNc2ccc(C(=O)O)cc2[N+](=O)[O-])cc1C | inconclusive [inhibitor, single point] |
| CCOC(=O)Cc1csc(NC(=O)CC)n1 | inactive |
| CN(C(=O)c1cnc(N2CCOCC2)c2ccccc12)c1ccccc1F | inactive |
| COCCCNC(=S)NNC(=S)Nc1ccccc1 | inconclusive [inhibitor, partial curve] |
| COc1ccc(-n2cnnc2SCc2cnc(-c3ccccc3)s2)cc1 | inconclusive [inhibitor, single point] |
| CCc1ccc(NC(=O)C(C)OC(=O)CCN2C(=O)C3CC=CCC3C2=O)cc1 (centres undefined) | inactive |
| S=c1[nH]nc(Nc2ccccc2Cl)s1 | inconclusive [inhibitor, single point] |
| COCCCNc1ccc([N+](=O)[O-])cc1C(=O)Nc1cccc(C)n1 | inconclusive [inhibitor, single point] |
| CC(=O)c1ccc(S(=O)(=O)NCCC(=O)OCC(=O)N2CCCC2=O)cc1 | inconclusive [inhibitor, single point] |
| Cc1ccc(NC(=O)Nc2cccs2)nc1 | inconclusive [inhibitor, partial curve, poor fit] |
| Cc1cc(C(=O)NC2CCCc3c2cnn3-c2cc(F)cc(F)c2)nn1C (centres undefined) | inactive |
| CSc1ccc(CCNC(=O)c2sc3ncccc3c2-n2cccc2)cc1 | inactive |
| CC(C)CC(NC(=O)/C(=C/c1ccco1)NC(=O)c1ccc(Br)o1)C(=O)O (centres undefined) | inconclusive [inhibitor, single point] |
| O=C(CSc1cccc[n+]1[O-])c1ccc(Cl)s1 | inconclusive [inhibitor, single point] |
| CCc1nn(CC(=O)NCCCN(CC)Cc2ccccc2)c(=O)c2cc3sccc3n12 | inconclusive [inhibitor, single point] |
| CC(=NNC(=O)c1ccncc1)c1ccccc1O | inactive |

| SMILES | Potency |
| --- | --- |
| CCn1c(SCC(=O)O)nc2sc3c(c2c1=O)CCC3 | inconclusive [inhibitor, single point] |
| Cc1oc2c(c(C)cc3oc(=O)c(CC(=O)N[C@@H](CC(C)C)C(=O)O)c(C)c32)c1C | inconclusive [inhibitor, partial curve] |
| COc1ccc(NC(=O)c2c(NCc3cccc(OC)c3)sc3c2CCC3)cc1 | inconclusive [inhibitor, single point] |
| COc1ccc(S(=O)(=O)N2CCN(C(=O)NCc3ccccc3)CC2)cc1 | inactive |
| O=C(CNC(=O)c1ccccc1O)N/N=C/c1ccccn1 | inactive |
| Cn1c(SCCOc2ccc(F)cc2)nnc1-c1ccncc1 | inconclusive [inhibitor, full curve] |
| CC(C)(C)c1ccccc1OCCOCCN1CCCCCC1 | inconclusive [inhibitor, partial curve, poor fit] |
| COc1ccccc1/C=N/Nc1nncc2ccccc12 | inactive |
| Cc1cc(Cl)ccc1NNC(=O)c1c(C)noc1C | inconclusive [inhibitor, partial curve] |
| Cc1c(Cc2ccccc2)c(=O)oc2c(O)c(O)ccc12 | inconclusive [inhibitor, single point] |
| Cc1ccc(-c2cc(C(=O)NC3CCCCC3)no2)cc1 | inactive |
| O=[N+]([O-])c1c(NCCCO)cc(Sc2nc3ccccc3s2)c2nonc12 | inconclusive [inhibitor, single point] |
| CCCCOC(=O)C1=C(N)N2C(=O)C(C)SC2=C(C(=O)OCC)C1c1ccc(O)c(OC)c1 (centres undefined) | inconclusive [inhibitor, partial curve] |
| CC(=O)c1cccc(N(C(=O)Cn2nnc3ccccc32)C(C(=O)NC2CCCCC2)c2cn(C)nc2C)c1 (centres undefined) | active: 7.94 µM |
| Cc1c(N=Cc2cc(Br)cc(Br)c2O)cccc1C(=O)O | inconclusive [inhibitor, single point] |
| Oc1ccc(C2CNCc3sccc32)cc1O (centres undefined) | inconclusive [inhibitor, single point] |
| Cc1ccc(-n2c(=O)c3c4c(sc3n3c(=S)[nH]nc23)CCC4)cc1 | inconclusive [inhibitor, single point] |
| COc1ccc(C2=Nc3ccccc3NC(=O)C2N(CCc2ccccc2)C(=O)c2cccs2)cc1 (centres undefined) | inactive |
| Cc1csc(NC(=O)Nc2ccccc2[N+](=O)[O-])n1 | inconclusive [inhibitor, single point] |
| C/C(=N\Nc1cccc2cccnc12)c1ccc[nH]1 | inconclusive [inhibitor, partial curve, poor fit] |
| NNc1ncnc2sc3c(c12)CCC3 | inconclusive [inhibitor, single point] |
| O=C(Nc1ccc(Br)cc1)c1cc(S(=O)(=O)N2CCc3ccccc32)ccc1F | inactive |
| Cc1ccc(NC(=O)N2CCCC2C(=O)NCc2ccccc2Cl)cc1 (centres undefined) | inconclusive [inhibitor, partial curve, poor fit] |

From PubChem BioAssay AID624170 (National Center for Advancing Translational Sciences (NCATS), 2012)
